Values marked as one replicate rest on one cluster of the flow cell; about a third of the high ones do not repeat.
Tested on: ATP
Assay: switch fluorescence ratio, 500 uM ATP over buffer (Cy3 cluster intensity, sum of 5 cycles each) (fold (ratio)); higher = stronger signal-on switching upon ATP binding; sequences stand for … in TCGTCGGCAGCGTCAGATGTGTATAAGAGACAGTTTTTTTTTTTTTTTTTTTTTTTTT…TC
Settings: aptamer strand: ATP DNA aptamer (quencher-CACCTGGGGGAGTATTGCGGAGGAAGG + anchor), 100 nM annealed; ATP concentration: 500 uM; one replicate
Outline: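 Switching-strand clusters labelled with Cy3 on a modified Illumina MiSeq flow-cell were annealed to 100 nM quencher-labelled ATP aptamer, imaged in selection buffer, and re-imaged after 15 min with 500 uM ATP at 22 °C. This was done over five cycles with NaOH stripping and re-annealing in between. The fluorescence ratio is summed target-cycle over summed buffer-cycle Cy3 intensity per cluster, averaged per switch-domain sequence, excluding clusters outside 100-1000 RFU.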
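Also: ATP exposure 15 min at 22 °C before imaging.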

Row | Sequence | switch fluorescence ratio
1 | TCCAAAACG | 1
2 | GGGATCTATT | 0.967
3 | GCGGGTGCGG | 0.987
4 | TCAAGCATTG | 0.968
5 | GGCCGTTAGT | 0.99
6 | GCTTTAGTTG | 0.996
7 | CAGAGATCTT | 0.983
8 | TCTTTGACC | 1.01
9 | AACGCCATC | 1.27
10 | GTGGATA | 1.02
11 | GCTCTGGGCA | 1
12 | GGCCGTTGAG | 0.993
13 | TCTGTATACG | 0.985
14 | TAAAGATGCG | 0.997
15 | TTCATAAAGG | 1.06
16 | GTCCAATAGC | 1.1
17 | TATTTGGTAC | 1.07
18 | TTTATAAGAC | 1.12
19 | TATTGAATCG | 1.03
20 | ACGCGCCTAC | 1.63
21 | TGCTTCTTCT | 2.25
22 | TACAAGGTGT | 1.27
23 | GCCAAATAGC | 1.01

Row | Sequence | switch fluorescence ratio
24 | AAAAAAGTT | 1.05
25 | CTGTAAATCG | 0.95
26 | TTGTTCAGTC | 0.994
27 | TTGGATAGCT | 1.01
28 | CTAAAGATTG | 1.04
29 | GTGTAGTGGT | 1
30 | GGGTCGCCA | 0.984
31 | CCAACTACTT | 1.04
32 | TTTTGTTCTG | 1.08
33 | GACGTTGCG | 0.982
34 | TTCTGATCGC | 0.995
35 | TGACCATTAA | 1.02
36 | GCATAAGTA | 1.01
37 | CCTGTGAGGA | 1.01
38 | CGAACTCCAT | 0.997
39 | ACCGTTGATG | 0.95
40 | TGTAGCCCGT | 0.971
41 | TGAGGACCCA | 1.03
42 | AATGGATCTC | 0.978
43 | CTGGCCAACA | 0.987
44 | AGTGGTAGAA | 1.01
45 | TGGATTTACG | 1.02
46 | AAGTAAATAG | 2.08

Row | Sequence | switch fluorescence ratio
47 | GCGGACACAT | 1.01
48 | GTCCCTAGTA | 0.994
49 | CCCAGCCGCG | 1.18
50 | TTTTGCTATC | 1.33
51 | AGTACCT | 1.27
52 | ATTGCTACAA | 1.01
53 | TCGCACTTTT | 1.05
54 | GGGTCCTTG | 0.995
55 | CGTATAAGCT | 0.927
56 | GTAGGGAGAG | 1
57 | GGTGGTGTT | 1.01
58 | TTAGCACGGA | 1.05
59 | ATGGGTCTTG | 0.973
60 | CCGGATTATT | 1.08
61 | TGTTCCGTTG | 1.1
62 | GAACTTCGAA | 1.02
63 | CAGTATACTG | 1.04
64 | TGCTGGAAAT | 0.994
65 | GATGTCCGAA | 1.01
66 | TCTCCAGAAG | 1
67 | CGCCCCGGTA | 1.05
68 | CTAAGCGACC | 1.1
69 | AACACTGAAT | 1.03

Row | Sequence | switch fluorescence ratio
70 | AGGCGTACAG | 0.991
71 | CGCTGTAGTC | 1.06
72 | AGTTAGACCT | 1.31
73 | GCCTTTAGTT | 0.971
74 | TAAATGAGCG | 0.965
75 | GTCGGGTGGG | 0.968
76 | TACATGCCCG | 1.13
77 | CCCTATCAG | 1.02
78 | GCGATACCGG | 1.15
79 | GGGTTGTCAC | 0.954
80 | GCGGTGGACA | 0.974
81 | AACTACCTTG | 1.06
82 | ACTTAGTGAA | 1.08
83 | TTTTGGTCT | 0.972
84 | TGGATGGTGT | 0.993
85 | CATGAAGGAT | 1
86 | GCGGCGTCGT | 1.01
87 | CAGTTAACCC | 1
88 | CGCCGGTTCC | 1.03
89 | TCTGCGTGCT | 1.02
90 | TGAAGCATGA | 1.05
91 | CCAATCTGTA | 1.01
92 | TGTATAATTT | 0.997

Row | Sequence | switch fluorescence ratio
93 | ATCTTCACGT | 1.02
94 | TATTGTAGAA | 1
95 | CAAATGCAGC | 1.07
96 | GGAGCAGAAT | 1.42
97 | GATTCTGTTA | 1.01
98 | GATCCAGGAA | 1.01
99 | TAGGTTACTC | 1.06
100 | TGACGCTAG | 0.992
101 | TAGGGAAACA | 0.999
102 | TCTCGTTGTA | 1.03
103 | CCAGACTAAG | 1.01
104 | GCTGGATGGA | 0.983
105 | GGTGTAGTTT | 0.945
106 | ATAAAATTAC | 0.983
107 | CTCCATATCA | 0.969
108 | CCACCGGATG | 1.3
109 | GGGCGCCGGG | 0.98
110 | GATGGATCAG | 1.01
111 | CGGAACGGCA | 1.01
112 | TTAACTTATT | 0.931
113 | CGAGGCGGAT | 1.02
114 | TCGCTCCATA | 1.03
115 | GCTGTGTGCG | 1.02

Row | Sequence | switch fluorescence ratio
116 | CATCTGTCCA | 1.06
117 | CGGTCCTCA | 1.02
118 | TGCGGGTCT | 0.991
119 | TCGGAGGCAG | 1.01
120 | TGTGCATGCG | 0.971
121 | AAAACCTG | 1.03
122 | GAAAGAGGT | 0.968
123 | CTTTTACGAT | 1.03
124 | ATGACATTCT | 1.02
125 | CTGGCGTTGA | 1.04
126 | TATCACAGAC | 2
127 | ATTGGTGGCC | 0.976
128 | CGATAGTCTG | 1.01
129 | ATTGTTTCCA | 1.01
130 | GTTTGGGTG | 1.22
131 | TTCGAGGGAA | 1.32
132 | TAGCTAGCAC | 1.07
133 | CCTTTCAGGC | 1.07
134 | TTAGGCCAGT | 1.14
135 | TCCTATTCA | 1.02
136 | CTACGTTCCG | 1.09
137 | GAGTCTACTG | 1.04
138 | CGGTAAGTTA | 0.989

Row | Sequence | switch fluorescence ratio
139 | GGCCACAGGG | 1.01
140 | TCCGAGCTCG | 0.999
141 | TGGTGCCTTA | 0.977
142 | ACTGGACACT | 1.14
143 | CGTGTGTAGC | 0.984
144 | TATCGGTAAT | 1.01
145 | AAAGGGTACG | 1.01
146 | ATATGGAATG | 1.02
147 | AGGAGCTATG | 0.978
148 | CGATGGCGTA | 0.986
149 | GACAACAAAT | 1.07
150 | AGCTGTCTGC | 1.22
151 | GATCCACCAG | 1.57
152 | AAACCATTTG | 0.997
153 | AGGGGACTTA | 0.996
154 | GGCTTACCCA | 0.983
155 | ACTGGGCCG | 1.15
156 | TTGAAAGGAC | 1.03
157 | CTGTAAAGTA | 0.998
158 | CAGTCAGGCC | 1.02
